Results published in US10806795B2, “Bispecific anti-hapten/anti-blood brain barrier receptor antibodies, complexes thereof and their use as blood brain barrier shuttles” (Hoffmann-La Roche Inc., priority 2014, dated 2020).

B1: TfR2: antibody that binds to the transferrin receptor with reduced affinity (protein)
light: QIVLTQSPAIMSASPGEKVTVTCSASSSIRYMHWYQQKPGTSPKRWIYDTSELASGVPARFSGSGSGTSYSLTINSMEAEDAATYYCHQRSSYPFTFGGGTKLEIKRTVAAPSVFIFPPSDEQLKSGTASVVCLLNNFYPREAKVQWKVDNALQSGNSQESVTEQDSKDSTYSLSSTLTLSKADYEKHKVYACEVTHQGLSSPVTKSFNRGEC
heavy: EVQLQQSGPELVKPGASVKMSCKASGYTFTSYVMHWVKQKPGQGLEWIGYVNPYNDDTKYNEKFRGKATLTSDKSSSTAYMELSSLTSEDSAVYYCARSYYYYSMDNWGQGTSVTVSS[skipping human IgG1 constant region]GGGGSGGGGSQVQLVESGGGLVKPGGSLRLSCAASGFTFSDYAMSWIRQAPGKCLEWVSSINIGATYIYYADSVKGRFTISRDNAKNSLYLQMNSLRAEDTAVYYCARPGSPYEYDKAYYSMAYWGQGTTVTVSSGGGGSGGGGSGGGGSDIQMTQSPSSLSASVGDRVTITCRASQDIKNYLNWYQQKPGKAPKLLIYYSSTLLSGVPSRFSGSGSGTDFTLTISSLQPEDFATYYCQQSITLPPTFGCGTKVEIK
modifications: LC anti-TfR2 antibody; HC anti-TfR2 antibody conjugated to scFv anti- digoxigenin antibody fragment
B2: TfR2-Dig: digoxigenylated payload binding shuttle module, reduced affinity TfR, SEQ ID NO: 196 and 197 (protein)
light: B1 light
heavy: B1 heavy
modifications: digoxigenylated payload; LC anti-TfR2 antibody; HC anti-TfR2 antibody conjugated to scFv anti- digoxigenin antibody fragment
B3: TfR2-Bio (protein)
light: B1 light
heavy: EVQLQQSGPELVKPGASVKMSCKASGYTFTSYVMHWVKQKPGQGLEWIGYVNPYNDDTKYNEKFRGKATLTSDKSSSTAYMELSSLTSEDSAVYYCARSYYYYSMDNWGQGTSVTVSS[skipping human IgG1 constant region]GGGGSGGGGSDIQMTQSPSSLSASVGDRVTITCRASGNIHNYLSWYQQKPGKVPKLLIYSAKTLADGVPSRFSGSGSGTDFTLTISSLQPEDVATYYCQHFWSSIYTFGCGTKLEIKRGGGGSGGGGSGGGGSGGGGSQVQLVQSGAEVKKPGSSVKVSCKSSGFNNKDTFFQWVRQAPGQCLEWMGRIDPANGFTKYAQKFQGRVTITADTSTSTAYMELSSLRSEDTAVYYCARWDTYGAAWFAYWGQGTLVTVSS

Tested on: brain endothelial cells (hCMEC/D3)
Assay: Transwell assay of cell binding, transcytosis and release of shuttle modules (IgG ELISA)
Format: cell-based, human
Conditions: incubated apically 1 h at 37° C., antibody quantified by IgG ELISA over time
From the text: We used brain endothelial cells (hCMEC/D3) to investigate cell binding and transcytosis of the shuttle modules as reported herein. Previous studies (Crepin et al., 2010; Lesley et al., 1989, WO 2012/075037, WO 2014/033074) reported that valency and affinity of TfR binding antibodies influence efficacy of binding to, transcytosis though, and release from endothelial cells of the blood brain barrier. To investigate cell binding and transcytosis in hCMEC/D3, hCMEC/D3 cells cultured on filter inserts were incubated apically with the bispecific antibody or parent antibody (without hapten-binding scFvs as controls) for 1 h at 37° C. Cell monolayers were washed at RT in serum-free medium apically (400 μl) and basolaterally (1600 μl) three times for 3-5 min. each. All wash volumes were collected to monitor efficiency of removal of the unbound ligand or antibody. Pre-warmed medium was added to the apical chamber and the filters transferred to a fresh 12 well plate (blocked overnight with PBS containing 1% BSA) containing 1600 μl pre-warmed medium. At this point, cells on some of the filters were lysed in 500 μl RIPA buffer (Sigma, Munich, Germany, # R0278) in order to determine specific uptakes. The remaining filters were incubated at 37° C., and samples of cells and of basolateral and apical media were collected at various time points to determine apical and/or basolateral release. The content of antibody in the samples was quantified using a highly sensitive IgG ELISA.

Molecule | binding to cells and release to apical or basolateral compartments
B1 | efficiently bound to the cells, and become subsequently released over time to apical or basolateral compartments
B2 | efficiently bound to the cells and are released to apical or basolateral compartments to the same degree as the parent antibody
B3 | efficiently bound to the cells and are released to apical or basolateral compartments to the same degree as the parent antibody
